Measurements reported in doi:10.1101/2025.11.14.688473.
No constants are given. Whether binding was seen depends on the method and setting. For some of these results: Binding seen in cells or lysates may run through a third protein. Some binding calls cover weakened binding; strength is not graded here. Tags and fused reporters may be left off the sequences shown.

Assays:
Atg9-PA (S. cerevisiae) = target: T1, Atg9-PA (S. cerevisiae) (UniProt Q12142); experiment: co-IP; overexpressed GFP-Atg11 or mutants precipitated by overexpressed Protein A-tagged Atg9; blots probed with anti-GFP; washes at 4°C; as in Meyer et al., 2022
T1 sequence: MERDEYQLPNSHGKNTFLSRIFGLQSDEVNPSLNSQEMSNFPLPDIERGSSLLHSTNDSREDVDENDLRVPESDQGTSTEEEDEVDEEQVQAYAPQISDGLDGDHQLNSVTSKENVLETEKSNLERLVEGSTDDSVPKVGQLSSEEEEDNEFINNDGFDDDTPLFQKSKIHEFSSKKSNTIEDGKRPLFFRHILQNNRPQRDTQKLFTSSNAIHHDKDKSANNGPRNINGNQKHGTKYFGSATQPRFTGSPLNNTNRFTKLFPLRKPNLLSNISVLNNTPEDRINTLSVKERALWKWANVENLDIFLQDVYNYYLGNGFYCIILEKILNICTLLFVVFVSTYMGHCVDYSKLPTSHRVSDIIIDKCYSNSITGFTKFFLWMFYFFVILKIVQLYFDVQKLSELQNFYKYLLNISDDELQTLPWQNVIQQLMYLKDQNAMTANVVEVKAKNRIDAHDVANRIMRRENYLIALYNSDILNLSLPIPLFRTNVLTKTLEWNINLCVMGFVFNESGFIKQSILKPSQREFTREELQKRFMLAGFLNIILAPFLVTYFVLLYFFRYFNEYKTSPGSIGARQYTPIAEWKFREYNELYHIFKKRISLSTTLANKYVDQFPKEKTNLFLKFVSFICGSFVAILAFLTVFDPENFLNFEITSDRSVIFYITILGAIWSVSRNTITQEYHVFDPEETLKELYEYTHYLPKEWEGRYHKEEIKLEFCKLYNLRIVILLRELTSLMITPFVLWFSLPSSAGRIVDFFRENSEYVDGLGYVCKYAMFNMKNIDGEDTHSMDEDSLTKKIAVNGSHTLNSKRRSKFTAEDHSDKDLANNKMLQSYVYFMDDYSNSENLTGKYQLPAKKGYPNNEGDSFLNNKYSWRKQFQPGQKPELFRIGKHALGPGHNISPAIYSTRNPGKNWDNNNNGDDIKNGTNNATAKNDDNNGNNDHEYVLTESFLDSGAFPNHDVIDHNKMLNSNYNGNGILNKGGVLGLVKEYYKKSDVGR

BD-Atg9 (S. cerevisiae) = target: T2, BD-Atg9 (S. cerevisiae) (UniProt Q12142); experiment: two-hybrid; BD-ATG9 and AD-ATG11 or mutants in multiple-knockout yeast YCY149 (lacking 25 ATG genes); growth on SMD -ura -leu -his with 1.5 mM 3-amino-triazol, 4-5 days at 30°C
T2 sequence: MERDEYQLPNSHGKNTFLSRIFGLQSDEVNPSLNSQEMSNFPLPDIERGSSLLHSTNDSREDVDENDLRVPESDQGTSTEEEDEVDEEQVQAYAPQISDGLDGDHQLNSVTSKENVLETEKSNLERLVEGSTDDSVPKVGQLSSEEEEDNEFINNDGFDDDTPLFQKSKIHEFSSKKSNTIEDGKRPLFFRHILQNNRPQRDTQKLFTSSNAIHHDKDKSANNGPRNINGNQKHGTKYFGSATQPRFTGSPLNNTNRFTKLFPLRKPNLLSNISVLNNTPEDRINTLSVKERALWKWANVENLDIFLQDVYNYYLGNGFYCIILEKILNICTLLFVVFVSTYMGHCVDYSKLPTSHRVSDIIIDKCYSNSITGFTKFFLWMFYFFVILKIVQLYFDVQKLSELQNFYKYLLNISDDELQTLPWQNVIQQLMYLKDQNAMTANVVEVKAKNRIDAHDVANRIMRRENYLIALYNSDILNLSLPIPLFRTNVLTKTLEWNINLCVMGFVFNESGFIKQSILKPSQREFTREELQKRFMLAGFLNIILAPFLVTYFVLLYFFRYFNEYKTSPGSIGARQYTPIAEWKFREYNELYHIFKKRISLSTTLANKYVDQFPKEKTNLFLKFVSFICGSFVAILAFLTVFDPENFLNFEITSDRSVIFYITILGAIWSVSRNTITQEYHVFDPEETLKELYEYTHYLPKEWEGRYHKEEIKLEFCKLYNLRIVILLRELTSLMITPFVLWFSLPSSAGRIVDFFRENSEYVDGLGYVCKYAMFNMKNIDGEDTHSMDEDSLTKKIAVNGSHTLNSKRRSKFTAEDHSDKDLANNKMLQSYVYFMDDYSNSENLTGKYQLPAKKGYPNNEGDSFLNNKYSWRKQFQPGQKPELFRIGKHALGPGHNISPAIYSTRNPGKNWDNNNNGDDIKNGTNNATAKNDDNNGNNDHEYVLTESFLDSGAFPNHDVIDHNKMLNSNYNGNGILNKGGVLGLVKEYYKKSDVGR

Binder	binding (Atg9-PA (S. cerevisiae))	binding (BD-Atg9 (S. cerevisiae))
AD-atg11Δ455–535 (protein, UniProt Q12527) MADADEYSTAPTQQEITPLQTTATIINAISGECITTNVDFFVSLDKFKQFIARKWKIPPDQLLILLPYGNKLKPSMFKELLINRSFTLNDFYVYDRRLFSLVSKPTPTNLLTSKDSNPMNSPNSNDLTETLEYLIKNSHISQYQGSDTIMIKPMPSPLEDADVDLSRLNYHSVTSLLTTNLGWLSALEIDVHYFKSLIPDIIAHIKRIFDGLTVCSQYLKLYCFDVESLYNSNVQFLNQLVDNGMTSKWEKCFNDTLSKLTALEGDSLQKFINIESLLENEKSVKILNHSINGKLNKIKREIDENASFRDIITVNIDRLRQMFTPNESKFELEDQMAESFEVLVSEMRTRSRNVLDKEEEEFNSQEFLKSMNVMLEKDKKESVKTLFTISQALYSQIGELIDLKKSLQKHAVAILGNIAFTQMEILGIKRLLLNECNKDLELYKKYEVEFAQVEPNEDEEDENENSIANYRQDLVKVSQAIDNYMTQIKETDVSEPIIDLLSKTLFETKRFHIIYSNFKNNNNNSSNGNSISPEGSIALKSDDVVKGYKTRIKKLESLLHEFQYSDIGHWPQGVLNTHLKPFRGSATSINKKKFLGASVLLEPANISEVNIDSVSQANNHQIQELESNVDDLLHQLQLLKEENNRKSMQISEMGKKISDLEVEKTAYRETLTNLNQELARLTNEEQSHRTEIFTLNASFKKQLNDIISQDNEKIEKLTGDYDDVSKSRERLQMDLDESNKKHEQEVNLLKADIERLGKQIVTSEKSYAETNSSSMEKGEKFETIPLAEDPGRENQISAYTQTLQDRIFDIISTNIFILENIGLLLTFDNNNNIQIRRVKGLKKGTAQSNILDESTQMLDAHDNSLIKSPVFQKLKDEYELIKSVANGSEKDTQQSIFLGNITQLYDNKLYEVAVIRRFKDIETLAKKLTKENKIKRTLLERFQREKVTLRNFQIGDLALFLPTRENVNSVGSMSSSTSSLSSSFSSVDLSTPPPLDAMSIQSSPSVIHSNVINQASISGRDKNKLMRPWAAFTAFEESTRYFLKDEKGLTKGKEWFVGRIVTLEHFVADSPSNNPFRLPKGSVWFQVTAVVVSYQGV	–	no binding
AD-atg11ΔCC2 (protein, UniProt Q12527) MADADEYSTAPTQQEITPLQTTATIINAISGECITTNVDFFVSLDKFKQFIARKWKIPPDQLLILLPYGNKLKPSMFKELLINRSFTLNDFYVYDRRLFSLVSKPTPTNLLTSKDSNPMNSPNSNDLTETLEYLIKNSHISQYQGSDTIMIKPMPSPLEDADVDLSRLNYHSVTSLLTTNLGWLSALEIDVHYFKSLIPDIIAHIKRIFDGLTVCSQYLKLYCFDVESLYNSNVQFLNQLVDNGMTSKWEKCFNDTLSKLTALEGDSLQKFINIESLLENEKSVKILNHSINGKLNKIKREIDENASFRDIITVNIDRLRQMFTPNESKFELEDQMAESFEVLVSEMRTRSRNVLDKEEEEFNSQEFLKSMNVMLEKDKKESVKTLFTISQALYSQIGELIDLKKSLQKHAVAILGNIAFTQMEILGIKRLLLNECNKDLELYKKYEVEFAQVEDLPLIYGLYLIEKYRRLSWFQQILSFISNFNQDLELFKQNELRTRNKWVKNFGSIATVFCEDLLSSSDFKRLNEYHSHTSPPIIDLLSKTLFETKRFHIIYSNFKNNNNNSSNGNSISPEGSIALKSDDVVKGYKTRIKKLESLLHEFQYSDIGHWPQGVLNTHLKPFRGSATSINKKKFLGASVLLEPANISEVNIDSVSQANNHQIQELESNVDDLLHQLQLLKEENNRKSMQISEMGKKISDLEVEKTAYRETLTNLNQELARLTNEEQSHRTEIFTLNASFKKQLNDIISQDNEKIEKLTGDYDDVSKSRERLQMDLDESNKKHEQEVNLLKADIERLGKQIVTSEKSYAETNSSSMEKGEKFETIPLAEDPGRENQISAYTQTLQDRIFDIISTNIFILENIGLLLTFDNNNNIQIRRVKGLKKGTAQSNILDESTQMLDAHDNSLIKSPVFQKLKDEYELIKSVANGSEKDTQQSIFLGNITQLYDNKLYEVAVIRRFKDIETLAKKLTKENKIKRTLLERFQREKVTLRNFQIGDLALFLPTRENVNSVGSMSSSTSSLSSSFSSVDLSTPPPLDAMSIQSSPSVIHSNVINQASISGRDKNKLMRPWAAFTAFEESTRYFLKDEKGLTKGKEWFVGRIVTLEHFVADSPSNNPFRLPKGSVWFQVTAVVVSYQGV	–	no binding

More lines, now with the values ahead:

binding (Atg9-PA (S. cerevisiae))	binding (BD-Atg9 (S. cerevisiae))	Binder
binds	–	GFP-Atg11 (wild type) (protein, UniProt Q12527 1-1178) MADADEYSTAPTQQEITPLQTTATIINAISGECITTNVDFFVSLDKFKQFIARKWKIPPDQLLILLPYGNKLKPSMFKELLINRSFTLNDFYVYDRRLFSLVSKPTPTNLLTSKDSNPMNSPNSNDLTETLEYLIKNSHISQYQGSDTIMIKPMPSPLEDADVDLSRLNYHSVTSLLTTNLGWLSALEIDVHYFKSLIPDIIAHIKRIFDGLTVCSQYLKLYCFDVESLYNSNVQFLNQLVDNGMTSKWEKCFNDTLSKLTALEGDSLQKFINIESLLENEKSVKILNHSINGKLNKIKREIDENASFRDIITVNIDRLRQMFTPNESKFELEDQMAESFEVLVSEMRTRSRNVLDKEEEEFNSQEFLKSMNVMLEKDKKESVKTLFTISQALYSQIGELIDLKKSLQKHAVAILGNIAFTQMEILGIKRLLLNECNKDLELYKKYEVEFAQVEDLPLIYGLYLIEKYRRLSWFQQILSFISNFNQDLELFKQNELRTRNKWVKNFGSIATVFCEDLLSSSDFKRLNEYHSHTSPPNEDEEDENENSIANYRQDLVKVSQAIDNYMTQIKETDVSEPIIDLLSKTLFETKRFHIIYSNFKNNNNNSSNGNSISPEGSIALKSDDVVKGYKTRIKKLESLLHEFQYSDIGHWPQGVLNTHLKPFRGSATSINKKKFLGASVLLEPANISEVNIDSVSQANNHQIQELESNVDDLLHQLQLLKEENNRKSMQISEMGKKISDLEVEKTAYRETLTNLNQELARLTNEEQSHRTEIFTLNASFKKQLNDIISQDNEKIEKLTGDYDDVSKSRERLQMDLDESNKKHEQEVNLLKADIERLGKQIVTSEKSYAETNSSSMEKGEKFETIPLAEDPGRENQISAYTQTLQDRIFDIISTNIFILENIGLLLTFDNNNNIQIRRVKGLKKGTAQSNILDESTQMLDAHDNSLIKSPVFQKLKDEYELIKSVANGSEKDTQQSIFLGNITQLYDNKLYEVAVIRRFKDIETLAKKLTKENKIKRTLLERFQREKVTLRNFQIGDLALFLPTRENVNSVGSMSSSTSSLSSSFSSVDLSTPPPLDAMSIQSSPSVIHSNVINQASISGRDKNKLMRPWAAFTAFEESTRYFLKDEKGLTKGKEWFVGRIVTLEHFVADSPSNNPFRLPKGSVWFQVTAVVVSYQGV
binds	–	GFP-Atg11 YDLL (protein, UniProt Q12527 1-1178) MADADEYSTAPTQQEITPLQTTATIINAISGECITTNVDFFVSLDKFKQFIARKWKIPPDQLLILLPYGNKLKPSMFKELLINRSFTLNDFYVYDRRLFSLVSKPTPTNLLTSKDSNPMNSPNSNDLTETLEYLIKNSHISQYQGSDTIMIKPMPSPLEDADVDLSRLNYHSVTSLLTTNLGWLSALEIDVHYFKSLIPDIIAHIKRIFDGLTVCSQYLKLYCFDVESLYNSNVQFLNQLVDNGMTSKWEKCFNDTLSKLTALEGDSLQKFINIESLLENEKSVKILNHSINGKLNKIKREIDENASFRDIITVNIDRLRQMFTPNESKFELEDQMAESFEVLVSEMRTRSRNVLDKEEEEFNSQEFLKSMNVMLEKDKKESVKTLFTISQALYSQIGELIDLKKSLQKHAVAILGNIAFTQMEILGIKRLLLNECNKDLELYKKYEVEFAQVEDLPLIYGLYLIEKARRLSWFQQILSFISNFNQDLELFKQNELRTRNKWVKNFGSIATVFCEAALSSSDFKRANEYHSHTSPPNEDEEDENENSIANYRQDLVKVSQAIDNYMTQIKETDVSEPIIDLLSKTLFETKRFHIIYSNFKNNNNNSSNGNSISPEGSIALKSDDVVKGYKTRIKKLESLLHEFQYSDIGHWPQGVLNTHLKPFRGSATSINKKKFLGASVLLEPANISEVNIDSVSQANNHQIQELESNVDDLLHQLQLLKEENNRKSMQISEMGKKISDLEVEKTAYRETLTNLNQELARLTNEEQSHRTEIFTLNASFKKQLNDIISQDNEKIEKLTGDYDDVSKSRERLQMDLDESNKKHEQEVNLLKADIERLGKQIVTSEKSYAETNSSSMEKGEKFETIPLAEDPGRENQISAYTQTLQDRIFDIISTNIFILENIGLLLTFDNNNNIQIRRVKGLKKGTAQSNILDESTQMLDAHDNSLIKSPVFQKLKDEYELIKSVANGSEKDTQQSIFLGNITQLYDNKLYEVAVIRRFKDIETLAKKLTKENKIKRTLLERFQREKVTLRNFQIGDLALFLPTRENVNSVGSMSSSTSSLSSSFSSVDLSTPPPLDAMSIQSSPSVIHSNVINQASISGRDKNKLMRPWAAFTAFEESTRYFLKDEKGLTKGKEWFVGRIVTLEHFVADSPSNNPFRLPKGSVWFQVTAVVVSYQGV
